According to ChEMBL document CHEMBL4888484, “Replenishing the malaria drug discovery pipeline: Screening and hit evaluation of the MMV Hit Generation Library 1 (HGL1) against asexual blood stage Plasmodium falciparum ,using a nano luciferase reporter read-out” (2022):
Hit rate of the full screen: of about 150,000 compounds, about 540 (0.36%) showed an effect of 50% or more. Some of the results follow.

tested on: Plasmodium falciparum; assay: Primary screen in NF54 nanoGlo assay, in single point, at 2uM, 72h; a lower Z score goes with more inhibition; assay type: functional, Erythrocyte; conditions: timepoint 72 hour

Row | Structure (SMILES) | % Inhibition | Z score
1 | Cc1cc2ncc(C(C)NCC(C)N3CCOCC3C)c(C)n2n1 (stereo not drawn) | -4% | 0.44
2 | CCOc1cc(CNCCNS(C)(=O)=O)c(Cl)cc1OC(C)C | 9% | -1.33
3 | CCc1nnc(NS(=O)(=O)c2ccc(OC(C)C)cc2)o1 | -9% | 1.26
4 | O=C1[C@@H]2CCCN2C(=O)CN1CCc1ccccc1 | 0% | 0
5 | O=C(Cc1ccccc1O)N[C@H]1CCCN(C2CCCC2)C1 | 0% | -0.04
6 | O=C(NCCOC(=O)c1ccccc1F)c1ccccc1 | -12% | 1.69
7 | O=C(NCc1cccc(Cl)c1O)N[C@H](C1CCC1)C1CC1 | 6% | -1.2
8 | CNc1snc(C)c1C(=O)N1CCC(OCC(C)C)CC1 | -3% | 0.51
9 | O=C(NCCCN1CCOCC1)c1ccc2nc(-c3ccc(F)cc3)c(-c3ccc(F)cc3)nc2c1 | -14% | 1.63
10 | O=C1CCCN1Cc1nc(-c2ccc(F)cc2)no1 | -3% | 0.4
11 | N#Cc1cnc(N2CCC[C@H](c3nncn3C3CC3)C2)c(Cl)c1 | -15% | 1.48
12 | O=C(NCCc1nc(-c2ccsc2)no1)OCC(F)(F)F | 4% | -0.59
13 | Cc1noc(C)c1S(=O)(=O)N1CCC[C@H]1c1nnc(C(C)C)[nH]1 | -11% | 1.38
14 | C[C@H]1c2cc(Cl)cc(Cl)c2CCN1c1c(C#N)c(=O)n(C)c(=O)n1C | -3% | 0.5
15 | COc1ccccc1NC(=O)Nc1ccccc1N1CCCC1 | 0% | -0.05
16 | COCCCN(CC(=O)N(CCc1c[nH]c2ccccc12)Cc1ccc(OC)c(OC)c1)C(=O)C(c1ccccc1)c1ccccc1 | 8% | -0.96
17 | CCNC(=O)[C@@H]1C[C@@H](n2cc(-c3ccc(F)cc3)nn2)CN1 | -8% | 1.36
18 | Brc1ccc(N2CCC(CN3CCOCC3)CC2)nc1 | 5% | -0.73
19 | C[C@H]1CCCCN1C(=O)c1cnn2ccccc12 | -3% | 0.53
20 | Cc1nc(NC(=O)N2CCOCC2CC(O)c2cccs2)sc1C (stereo not drawn) | 31% | -0.39
21 | COc1ccc(-c2noc(Cn3c(=O)c4ccccc4n(CC(=O)Nc4cc(C)ccc4C)c3=O)n2)cc1 | 30% | 0.01
22 | O=C(NC(c1ccccc1)C1CC1)C1CCCN(C(=O)c2cccs2)C1 (stereo not drawn) | 4% | -0.42
23 | C[C@H](NC(=O)N1CCc2ccc(F)cc2C1)c1noc(Cc2ccccc2)n1 | -11% | 1.48
24 | CCCCN(CCc1nc(-c2ccc(C)cc2)no1)C(=O)c1ccco1 | -15% | 2.22
